Test results published in PubChem BioAssay.
This list was built around the results that the source calls inconclusive (neither active nor inactive); the mix of calls is not that of the screen. Activity calls are given as the source filed them.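 How the source made its calls, unless noted: active means thallium entry rate above the same plate's blocked-transporter control wells by more than 3 SD; inconclusive means the two repeat wells disagree; inactive means the rest.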

Columns and labels:
[1] = FluoZin2 fluorescence counter-screen of MLSMR hits on KCC2-expressing cells (AID 1714); conditions: HEK293-KCC2 + bumetanide/ouabain, at 10 µM, stronger effect = higher value;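 further: raw slope of fluorescence over initial fluorescence between 10 and 20 s after thallium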
In short: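 Test system: HEK cells expressing the K-Cl cotransporter KCC2. Timing: overnight culture 37 °C, dye loading 48 min. Technique: FluoZin2-AM (0.5 µM) fluorescence, 480 nm ex/540 nm em, 1 Hz kinetic imaging. Repeats: duplicates.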

[2] = compound effects on native HEK Tl+ uptake – HEK cells, counterscreen 1, counter-screen for KCC2 modulator project, confirmation (AID 1716;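 active means thallium flux rate significantly above the same plate's solvent-only control wells, beyond their mean plus 3 SD; inconclusive means the two replicate wells gave conflicting results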); conditions: HEK293 parental cells, thallium flux FluoZin2, ouabain; at 10 µM; baseline-ratio fluorescence slope, 10–20 s after thallium
[3] = molecular target: Solute carrier family 12 member 5 (Homo sapiens) (UniProt Q9H2X9); assay: retest of KCC2 transport modulation, ouabain-free – cell-based, HEK293 KCC2, thallium flux, FluoZin2, secondary assay 2, confirmation (AID 1715;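 active means thallium flux slope more than 3 SD above or below the plate's solvent-only control mean, mostly below; inconclusive means the two repeat wells disagreed; inactive means no significant shift from solvent-only controls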;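 further: raw slope with 0.1% DMSO as baseline and bumetanide as block control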); conditions: HEK293-KCC2, thallium flux FluoZin2 fluorescence; at 10 µM; actives lie on both sides; F/F0 rise rate, 10–20 s post-thallium
Sequence of UniProt Q9H2X9 (Q9H2X9 whole entry, looked up): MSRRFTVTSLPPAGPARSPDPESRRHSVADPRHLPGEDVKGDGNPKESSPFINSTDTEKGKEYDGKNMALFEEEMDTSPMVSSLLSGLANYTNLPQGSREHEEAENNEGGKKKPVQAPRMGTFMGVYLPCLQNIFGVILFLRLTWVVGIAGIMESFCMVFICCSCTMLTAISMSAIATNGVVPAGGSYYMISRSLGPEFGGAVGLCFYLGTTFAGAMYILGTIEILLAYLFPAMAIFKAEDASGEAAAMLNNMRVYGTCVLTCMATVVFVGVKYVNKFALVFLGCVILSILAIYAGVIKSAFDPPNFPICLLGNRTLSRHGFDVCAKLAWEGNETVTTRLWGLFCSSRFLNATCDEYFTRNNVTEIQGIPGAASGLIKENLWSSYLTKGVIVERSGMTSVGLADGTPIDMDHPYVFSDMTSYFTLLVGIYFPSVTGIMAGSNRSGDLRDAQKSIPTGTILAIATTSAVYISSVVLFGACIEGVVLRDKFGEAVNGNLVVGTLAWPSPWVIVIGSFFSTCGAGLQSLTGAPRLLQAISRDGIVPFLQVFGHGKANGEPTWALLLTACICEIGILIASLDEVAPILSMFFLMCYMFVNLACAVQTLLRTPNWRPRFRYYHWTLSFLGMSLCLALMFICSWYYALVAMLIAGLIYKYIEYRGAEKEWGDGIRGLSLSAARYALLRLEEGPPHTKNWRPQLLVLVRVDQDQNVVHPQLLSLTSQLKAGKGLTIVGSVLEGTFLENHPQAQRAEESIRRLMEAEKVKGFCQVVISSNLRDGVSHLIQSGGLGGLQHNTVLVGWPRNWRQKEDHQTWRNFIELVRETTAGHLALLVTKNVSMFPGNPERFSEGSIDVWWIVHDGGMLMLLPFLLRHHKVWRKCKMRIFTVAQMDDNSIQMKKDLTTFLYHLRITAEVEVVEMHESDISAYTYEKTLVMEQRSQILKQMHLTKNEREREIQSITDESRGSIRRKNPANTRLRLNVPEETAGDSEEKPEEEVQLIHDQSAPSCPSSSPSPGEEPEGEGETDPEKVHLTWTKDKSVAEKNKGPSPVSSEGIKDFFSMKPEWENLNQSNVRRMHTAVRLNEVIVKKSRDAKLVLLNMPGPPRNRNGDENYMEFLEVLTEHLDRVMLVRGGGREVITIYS

[4] = native HEK Tl+ uptake effects, second counter-screen – HEK cells, counterscreen 2, counter-screen for KCC2 modulator project, confirmation (AID 1718;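 active means thallium flux slope above the same plate's solvent-control mean plus 3 SD in both duplicate wells; inconclusive means duplicate wells that disagreed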;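 further: run without ouabain in cells lacking the KCC2 cotransporter; slope of fluorescence scaled to its starting value between 10 and 20 s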); conditions: HEK293 parental, thallium flux FluoZin-2 fluorescence slope; at 10 µM
In short: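 System: untransfected HEK cells, thallium influx assay; Schedule: 37 °C overnight growth, 48 min FluoZin2-AM loading; Medium: HBSS with 20 mM HEPES for dye loading; Measured by: FluoZin2-AM fluorescence (0.5 µM), ex 480 nm, em 540 nm, kinetic 1 Hz; Read-out: thallium influx rate; Compound: single 10 µM final compound dose, 0.1% DMSO.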

[5] = molecular target: Solute carrier family 12 member 5 (Homo sapiens) (UniProt Q9H2X9); assay: modulation of KCC2 thallium flux in HEK cells – cell-based, ouabain, retest, confirmation (AID 1717;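 active means thallium flux slope beyond 3 SD from same-plate DMSO control mean in most replicates, usually higher, sometimes lower; inconclusive means repeat tests gave conflicting results; inactive means no significant difference from controls in most replicates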;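 further: slope of initial-normalized fluorescence between seconds 10 and 20 after thallium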); conditions: HEK293-KCC2, thallium flux FluoZin2 fluorescence, at 10 µM, bidirectional: low = inhibitor, high = activator

Compound	normalized thallium flux [1]	thallium flux rate (normalised fluorescence) [2]	normalized thallium flux [3]	thallium flux slope [4]	raw Tl+ flux slope (below DMSO = inhibition, above = activation) [5]
Cc1ccc(C)c(NC(=S)NNC(=O)c2sccc2C)c1	active: 0.0261	inconclusive: 0.0115	–	–	–
O=C(C1CC1)N1CCc2cc(S(=O)(=O)NC3CCN(Cc4ccccc4)CC3)ccc21	inconclusive: 0.00728	–	inconclusive: 0.0299	inactive: 0.0108	–
CC(=O)c1cccc(N(C(=O)Cn2nnc3ccccc32)C(C(=O)NC2CCCCC2)c2cn(C)nc2C)c1 (centres undefined)	inconclusive: 0.0076	–	inactive: 0.033	inconclusive: 0.0115	inactive: 0.0214
CCOc1ccc(OCC)c(NC(=O)C2CCCN(c3nc(C)cc(C)n3)C2)c1 (centres undefined)	inactive: 0.00409	–	inconclusive: 0.0266	inconclusive: 0.0085	–
Cc1c(N2C(=O)/C(=C/c3ccccc3)SC2=S)c(=O)n(-c2ccccc2)n1C	inconclusive: 0.00783	–	active: 0.0271	inconclusive: 0.0116	–
COc1cccc(CN(C)C(=O)c2cc(COc3ccc4ncccc4c3)on2)c1	inactive: 0.00356	inconclusive: 0.00601	–	–	–
O=C(Nc1nc(SCc2ccc(F)cc2)ns1)c1ccco1	inconclusive: 0.00556	inconclusive: 0.00871	–	–	–
O=C(c1ccc2c3n(nc2c1)-c1ccccc1CO3)N1CCCCC1	inconclusive: 0.00732	inactive: 0.00763	–	–	–
O=C(NCCc1ccccc1)c1noc2c1CCCCC2	inactive: 0.00666	–	inconclusive: 0.0295	inactive: 0.0105	–
O=C(C1CCCCC1)N1CCCC(c2nc3c(nnn3Cc3ccccc3)c(=O)[nH]2)C1 (centres undefined)	inconclusive: 0.00768	–	active: 0.0264	inconclusive: 0.0092	–
CCC1=NN2C(=N)/C(=C\c3cccn3-c3cccc(Cl)c3)C(=O)N=C2S1	active: 0.0503	–	inconclusive: 0.0329	active: 0.0212	–
O=C(CSc1ccc(-c2cccs2)nn1)Nc1ccccc1F	inactive: 0.00689	–	inconclusive: 0.0306	inactive: 0.0107	–
Cc1cc(NC(=O)CS(=O)(=O)c2cn(Cc3ccccc3Cl)c3ccccc23)no1	inactive: 0.00404	–	inconclusive: 0.0268	inconclusive: 0.00938	–
CS/C(=C\[N+](=O)[O-])Nc1ccc(OC(F)(F)F)cc1	inconclusive: 0.00794	inconclusive: 0.0087	–	–	–
Cc1occc1-c1nnc(SCC(=O)c2ccc(F)cc2)n1Cc1ccco1	inconclusive: 0.00326	active: 0.00548	–	–	–
Cc1[nH]c2ccccc2c1C(=O)COC(=O)CCS(=O)(=O)c1ccccc1Cl	inconclusive: 0.00712	–	inactive: 0.0343	inactive: 0.0118	–
O=C(N1CCOCC1)n1nnc2ccccc21	inconclusive: 0.00522	inactive: 0.00779	–	–	–
Brc1ccc(CSc2nnc(-c3ccccn3)n2Cc2ccco2)cc1	inconclusive: 0.00271	–	inconclusive: 0.0258	active: 0.00734	inconclusive: 0.0153
CCOC(=O)C1CCCN(C/C(O)=C(\C#N)c2nc(-c3ccc(Cl)cc3)cs2)C1 (centres undefined)	inactive: 0.00473	inactive: 0.00733	–	–	–
O=C(O)CS/C(=C\c1ccc(F)cc1)c1nc2ccccc2s1	inconclusive: 0.00606	–	inconclusive: 0.0253	inconclusive: 0.00805	–
CCc1nnc(NC(=O)CSc2nnc(COc3ccccc3C)o2)s1	inconclusive: 0.00537	inconclusive: 0.00698	–	–	–
CCCCC(c1nnnn1Cc1ccco1)N1CCN(c2nc3ccccc3s2)CC1 (centres undefined)	inactive: 0.00634	–	inconclusive: 0.0286	inactive: 0.0106	–
CSC(=NCc1ccc(F)cc1)NS(=O)(=O)c1cccs1	inconclusive: 0.00675	inactive: 0.00413	–	–	–
O=S(=O)(c1ccccc1)N1CCn2c(nc3ccccc32)C1	inconclusive: 0.00692	inactive: 0.00744	–	–	–
CCCCc1c(C)nc2ccc(C)cc2c1SCCC(=O)O	inconclusive: 0.00536	inactive: 0.00749	–	–	–
O=C1Nc2ccccc2S/C1=C/Nc1cccc(Cl)c1	inconclusive: 0.00654	inactive: 0.00709	–	–	–
CC(C)OC(=O)c1cc2c(ccn2C)n1CC(=O)N1CCC(Cc2ccccc2)CC1	inactive: 0.00416	inconclusive: 0.00652	–	–	–
